This note sets out measurements from PubChem BioAssay AID1745853 (National Center for Advancing Translational Sciences (NCATS), 2022).

Assay in all cases: Primary Screen for Target Class Profiling of Small Molecule Inhibitors of Methyltransferases
Test [1] has as its target Glycine N-methyltransferase (Homo sapiens) (UniProt Q14749). The note with it: purified enzyme, MTase-Glo SAH luminescence; measured here: GNMT inhibition; at 40 µM; stronger effect = lower value. Put shortly: (§1)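 Each enzyme was reacted with SAM and its substrate, with compounds tested once at 40 uM; SAH formed was read by MTase-Glo luminescence.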
Test [2] concerns the target Guanidinoacetate N-methyltransferase (Homo sapiens) (UniProt Q14353). The note with it: purified enzyme, MTase-Glo SAH luminescence; measured here: GAMT inhibition; at 40 µM; stronger effect = lower value. Put shortly:
as §1

Test [3] concerns the target Histamine N-methyltransferase (Homo sapiens) (UniProt P50135). The note with it: purified enzyme, MTase-Glo SAH luminescence; measured here: HNMT inhibition; at 40 µM; stronger effect = lower value. Put shortly:
as §1

Test [4] addresses Nicotinamide N-methyltransferase (Homo sapiens) (UniProt P40261). The note with it: purified enzyme, MTase-Glo SAH luminescence; measured here: NNMT inhibition; at 40 µM; stronger effect = lower value. The essentials:
as §1

For test [5], the target named is Phenylethanolamine N-methyltransferase (Homo sapiens) (UniProt P11086). The note with it: purified enzyme, MTase-Glo SAH luminescence; measured here: PNMT inhibition; at 40 µM; stronger effect = lower value. Put shortly: as §1

SMILES strings stand for the structures. This is one part of the list. These are further read-outs of the screen, such as a control signal, another cell line or another target. No call is given for them.
% is scaled to controls: 0 for no effect and ±100 for the full control effect.

`O=C(Nc1ccc(F)cc1)N1CCn2cccc2C1Cc1ccccc1` (stereo not drawn): the activity change, negative = inhibition in test [1] was -4.76%; in test [2] it was 0%; in test [3], 4.09%; in test [4], -0.906%; in test [5] it was 0.683%.
On to `O=C1COc2ccc(N3CCCC3)nc2CN1Cc1ccc(C(F)(F)F)cc1`, for which the activity change, negative = inhibition in test [1] was -15.2%; in test [2] it was -6.17%; in test [3], -18.6%; in test [4] it was -26.5%; in test [5] it was -0.764%.
Taken in the same sequence, the figures for `CCCNC(=O)N1CCC(n2c(C)cnc2C2CCOCC2)CC1` were 1.62%, 4.62%, 4.32%, -7.88% and 16.1%.
Take `CCc1ccc(C(=O)N2CC(c3nnc(C(C)C)o3)C3(CCOCC3)C2)cc1` (stereo not drawn): the activity change, negative = inhibition is -2.06% in test [1]; -2.75% in test [2]; -0.009% in test [3]; -12.4% in test [4]; -3.27% in test [5].
On the same counts, the results for `CCc1ccc(NC(=O)CSc2nnc3[nH]c(=O)c(Cc4ccc(C)cc4)nn23)cc1` are -5.29%, -0.171%, -12.3%, -15.9% and -10.8%.
On the same counts, the results for `C/C=C/C=C/C=C/C(=O)OC1C=C(C=O)C(O)(C(=O)O)C2(C)CCCC(C)(C)C12` (stereo not drawn) are -1.98%, -8.26%, 6.71%, -19.8% and -10.1%.
Taken in the same sequence, the figures for `Cc1ccc(NC(=O)[C@@H]2CNC[C@H](C(=O)NCc3ccccn3)C2)cn1` were -4.42%, 1.13%, 0.834%, -9.24% and 10.6%.
`O=C(NC1CCCC1)c1cc2cn(C3CC3)cc2s1`: the activity change, negative = inhibition in test [1] is -13.9%; in test [2], -2.93%; in test [3] it was -4.02%; in test [4] it was -4.9%; in test [5] it was -11.2%.
On the same counts, the results for `CCOc1ccccc1CN1C(=O)c2cc3oc(C)cc3n2CC1(C)C(=O)NC1CCCCC1` (stereo not drawn) are -1.58%, 1.54%, 2.77%, -8.66% and -0.173%.
Turning to `CC(=O)NNC(=O)N1Cc2ccccc2Oc2ccc(Cl)cc21`, the activity change, negative = inhibition in test [1] is -1.6%; in test [2], 8.72%; in test [3] it was 0.29%; in test [4], -3.85%; in test [5], 8.98%.
`OC1CCC(Nc2nc(-c3ccccc3)nc3[nH]ccc23)CC1` (stereo not drawn): the activity change, negative = inhibition in test [1] is -3.92%; in test [2], -7.5%; in test [3], -5.42%; in test [4] it was -16.8%; in test [5], -39.1%.
Taken in the same sequence, the figures for `CC(C)c1nc2c(c(-c3ccc(O)cc3)n1)CN(Cc1cccn1C)CC2` were -8.45%, -0.837%, -1.99%, -4.95% and -11%.
On the same counts, the results for `CCCn1c(=O)c2ccc(C(=O)NC(C)C)cc2n2c(SCC(=O)Nc3ccc(CC)cc3)nnc12` are 2.17%, 0%, 8.65%, -4.88% and -2.83%.
Taken in the same sequence, the figures for `CCOC(=O)c1cc2n(n1)CC(C)(C(=O)NC1CCCCCC1)N(Cc1cccc(C)c1)C2=O` (stereo not drawn) were 5.38%, 1.87%, 1.5%, -1.3% and 4.58%.
Turning to `CC1(C(=O)NC2CCCCCC2)Cn2c(nc3ccccc32)C(=O)N1CCc1ccccc1` (stereo not drawn), the activity change, negative = inhibition was 4.01% in test [1]; 0% in test [2]; 5.74% in test [3]; 4.02% in test [4]; 1.88% in test [5].
Taken in the same sequence, the figures for `CC1(C(=O)NCc2ccccc2)Cn2cnc(C(=O)NCCc3ccco3)c2C(=O)N1C1CC1` (stereo not drawn) were -2.98%, 3.41%, -4.57%, -3.12% and -1.83%.
With `Cc1ccc(NS(=O)(=O)c2ccc3c(c2)CCC(=O)N3)cc1C`, the activity change, negative = inhibition was 2.77% in test [2], -11.9% in test [4] and 1.07% in test [5].
In the case of `CC[C@H]1OC(=O)[C@H](C)[C@@H](O[C@H]2C[C@@](C)(OC)[C@@H](O)[C@H](C)O2)[C@H](C)[C@@H](O[C@@H]2O[C@H](C)C[C@H](NC)[C@H]2O)[C@](C)(O)C[C@@H](C)CN(C)[C@H](C)[C@@H](O)[C@]1(C)O`, the activity change, negative = inhibition was 5.66% in test [1]; 8.46% in test [2]; 4.62% in test [3]; -1.93% in test [4]; 10.5% in test [5].
On the same counts, the results for `CC(C)CCn1c(=O)c2ccc(C(=O)NCC(C)C)cc2n2c(=O)n(Cc3cccc(F)c3)nc12` are 4.79%, 0.449%, 4.16%, 2.67% and 4.31%.
On the same counts, the results for `Cn1nc(C2CCN(C(=O)c3ccccn3)CC2)c2c1CCOC2` are -0.444%, -4.5%, 2.14%, -3.72% and 0.69%.
On to `COc1ccccc1CNC(=O)C1(C)Cn2nc(-c3ccccc3)cc2C(=O)N1c1ccccc1F` (stereo not drawn), for which the activity change, negative = inhibition came to 4.11% in test [1]; 1.32% in test [2]; 7.68% in test [3]; 7.67% in test [4]; 2.19% in test [5].
Taken in the same sequence, the figures for `CCC(C)NC(=O)c1ccc2c(=O)n(C(C)C)c3nn(CC(=O)Nc4ccccc4Cl)c(=O)n3c2c1` (stereo not drawn) were 2.17%, 1.22%, -1.58%, -0.771% and -6.19%.
Take `COc1cccc(CN2Cc3cc(NC(=O)Cc4ccccc4)ccc3OCC2=O)c1`: the activity change, negative = inhibition was -4.12% in test [1]; -0.808% in test [2]; -14.5% in test [3]; -9.09% in test [4]; -0.531% in test [5].
On the same counts, the results for `CC(C)OCCCn1c(=O)c2ccccc2n2c(SCc3cccc(F)c3)nnc12` are -6.08%, 0.655%, 3.25%, -1.36% and 2.25%.
On the same counts, the results for `CNC[C@H](O)c1cccc(O)c1` are 1.8%, 13%, 1.03%, -2.01% and 5.16%.
With `CC(C)C(=O)N1CCC2(CCC(=O)N(CC3CC3)CC2)CC1`, the activity change, negative = inhibition was 0.363% in test [1]; 0.501% in test [2]; 0.513% in test [3]; -0.475% in test [4]; 1.22% in test [5].
On the same counts, the results for `N=C(N)SCCc1cnc[nH]1` are 4.84%, 12.1%, -24.9%, -6.22% and -3.43%.
Taken in the same sequence, the figures for `CN(C)S(=O)(=O)N1CC(CNC(=O)C2CC2)C2(CCCCC2)C1` (stereo not drawn) were 1.83%, -3.75%, -0.261%, -1.84% and -3.21%.
